The supplement of paper PMC4604168 (melanoma cell lines)
Some of the results follow. Most values come without repeats; read them as rough.

System: SkMel5
Assay: cell count relative to DMSO control; melanoma cells; higher = more viable cells
Conditions: library dose: standard library concentration; 72 h
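Also: cells treated in 1,536-well plates, then fixed and DAPI-stained, with nuclei counted from automated high-throughput microscope images.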

| Compound | cell count |
| --- | --- |
| COc1cc([C@@H]2c3cc4c(cc3[C@@H](O[C@@H]3O[C@@H]5CO[C@@H](C)O[C@H]5[C@H](O)[C@H]3O)[C@H]3COC(=O)[C@H]23)OCO4)cc(OC)c1O [etoposide] + COc1ccc2c(c1)CCC1C2CCC2(C)C(NCCCCCCN3C(=O)C=CC3=O)CCC12 [U73122] (first compound 0.1 µM, partner dose 2 µM) | 91.9% |
| Cn1cnc2c(F)c(Nc3ccc(Br)cc3Cl)c(C(=O)NOCCO)cc21 [selumetinib] + O=C(O)C(=O)Nc1sc2c(c1C(=O)O)CCNC2 [TCS401] (first compound 0.075 µM, partner dose 8.33333 µM) | 66.8% |
| C[C@]1(O)C[C@@H](c2nc(-c3ccc4ccc(-c5ccccc5)nc4c3)c3c(N)nccn32)C1 + Oc1nc(-c2ccc(C(F)(F)F)cc2)nc2c1CSCC2 [XAV939] (first compound 2 µM, partner dose 10 µM) | 68.2% |
| COc1cc([C@@H]2c3cc4c(cc3[C@@H](O[C@@H]3O[C@@H]5CO[C@@H](C)O[C@H]5[C@H](O)[C@H]3O)[C@H]3COC(=O)[C@H]23)OCO4)cc(OC)c1O [etoposide] + Oc1cc(-c2nc(-c3ccccc3)[nH]c2-c2ccncc2)ccc1Cl [L779450] (first compound 0.1 µM, partner dose 1 µM) | 57.2% |
| C[C@]1(O)C[C@@H](c2nc(-c3ccc4ccc(-c5ccccc5)nc4c3)c3c(N)nccn32)C1 + CCCCCCCCCCCC1=C(O)C(=O)C=C(O)C1=O [Embelin] (first compound 2 µM, partner dose 6 µM) | 70.8% |
| CCN(CC)CCNC(=O)c1c(C)[nH]c(/C=C2\C(=O)Nc3ccc(F)cc32)c1C [sunitinib] + CCCCCCCCCCCC1=C(O)C(=O)C=C(O)C1=O [Embelin] (first compound 2 µM, partner dose 6 µM) | 60.2% |
| C[C@]1(O)C[C@@H](c2nc(-c3ccc4ccc(-c5ccccc5)nc4c3)c3c(N)nccn32)C1 + O=C(Nc1ccccc1)c1cc([N+](=O)[O-])ccc1Cl [GW9662] (first compound 2 µM, partner dose 10 µM) | 70.3% |
| COc1cc([C@@H]2c3cc4c(cc3[C@@H](O[C@@H]3O[C@@H]5CO[C@@H](C)O[C@H]5[C@H](O)[C@H]3O)[C@H]3COC(=O)[C@H]23)OCO4)cc(OC)c1O [etoposide] + CCc1ccc(CCOc2ccc(CC3SC(=O)NC3=O)cc2)nc1 [pioglitazone] (first compound 0.1 µM, partner dose 10 µM) | 67.7% |
| C[C@]1(O)C[C@@H](c2nc(-c3ccc4ccc(-c5ccccc5)nc4c3)c3c(N)nccn32)C1 + O=c1cc(-c2cccc3c2Sc2ccccc2S3)oc(N2CCOCC2)c1 [KU55933] (first compound 2 µM, partner dose 5 µM) | 76.3% |
| C[C@]1(O)C[C@@H](c2nc(-c3ccc4ccc(-c5ccccc5)nc4c3)c3c(N)nccn32)C1 + O=C1NC(=O)/C(=C/c2ccc(-c3ccc(F)cc3O)o2)S1 [AS252424] (first compound 2 µM, partner dose 5 µM) | 75.5% |
| Cn1cnc2c(F)c(Nc3ccc(Br)cc3Cl)c(C(=O)NOCCO)cc21 [selumetinib] + CCCCCCCCCCCC1=C(O)C(=O)C=C(O)C1=O [Embelin] (first compound 0.075 µM, partner dose 6 µM) | 83.6% |
| CCN(CC)CCNC(=O)c1c(C)[nH]c(/C=C2\C(=O)Nc3ccc(F)cc32)c1C [sunitinib] + O=C(O)C(=O)Nc1sc2c(c1C(=O)O)CCNC2 [TCS401] (first compound 2 µM, partner dose 8.33333 µM) | 47.3% |
| C[C@]1(O)C[C@@H](c2nc(-c3ccc4ccc(-c5ccccc5)nc4c3)c3c(N)nccn32)C1 + Oc1cc(-c2nc(-c3ccccc3)[nH]c2-c2ccncc2)ccc1Cl [L779450] (first compound 2 µM, partner dose 1 µM) | 65% |
| COc1cc([C@@H]2c3cc4c(cc3[C@@H](O[C@@H]3O[C@@H]5CO[C@@H](C)O[C@H]5[C@H](O)[C@H]3O)[C@H]3COC(=O)[C@H]23)OCO4)cc(OC)c1O [etoposide] + COC(=O)c1sccc1S(=O)(=O)Nc1ccc(Nc2ccccc2)cc1OC [GSK0660] (first compound 0.1 µM, partner dose 5 µM) | 101% |
